Measurements published in paper PMC12820563.
Some of the results follow. The list includes weakly bound sequences.

molecular target: T1, MBP-FoxP3dN (UniProt Q99JB6); experiment: PD-seq (MBP pull-down with sequencing); settings: 20 mM Tris-HCl pH 7.5, 100 mM NaCl, 1.5 mM MgCl2, 0.4 uM protein, 0.1 uM dsDNA library, 30 min, room temperature, amylose pull-down; high values mean tight binding; double strand, one strand shown
T1 sequence: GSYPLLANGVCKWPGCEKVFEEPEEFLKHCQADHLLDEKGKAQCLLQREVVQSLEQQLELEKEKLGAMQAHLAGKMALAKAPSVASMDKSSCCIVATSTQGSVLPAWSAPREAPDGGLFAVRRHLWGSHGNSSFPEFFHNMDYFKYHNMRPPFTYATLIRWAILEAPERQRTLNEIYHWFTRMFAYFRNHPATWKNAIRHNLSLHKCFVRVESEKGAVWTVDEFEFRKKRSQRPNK

Row | Sequence | binding signal (RPM ratio (pull-down/input))
1 | GATGATTGTTCTCCCAGCTGATGAATTCATCAGCTCGAGTAAACAAATTTTCCTAATCTTTCTGTTCAAGCGCCATCTAC | 0.35
2 | GATGATTGTTCTCCCAGCTGATGAATTGGGACAATCGAGTAAACAAATTTTCCTAATCTTTCTGTTCAAGCGCCATCTAC | 0.597
3 | GATGATTGTTCTCCCAGCTGATGAATTACGCTACTCGAGTAAACAAATTTTCCTAATCTTTCTGTTCAAGCGCCATCTAC | 1.87
4 | GATGATTGTTCTCCCAGCTGATGAATTGTAGTTGTCGAGTAAACAAATTTTCCTAATCTTTCTGTTCAAGCGCCATCTAC | 2.31
5 | GATGATTGTTCTCCCAGCTGATGAATTAGAGGGCTCGAGTAAACAAATTTTCCTAATCTTTCTGTTCAAGCGCCATCTAC | 0.304
6 | GATGATTGTTCTCCCAGCTGATGAATTCGTATAGTCGAGTAAACAAATTTTCCTAATCTTTCTGTTCAAGCGCCATCTAC | 1.39
7 | GATGATTGTTCTCCCAGCTGATGAATTTAGAGCGTCGAGTAAACAAATTTTCCTAATCTTTCTGTTCAAGCGCCATCTAC | 0.533
8 | GATGATTGTTCTCCCAGCTGATGAATTACGCTATTCGAGTAAACAAATTTTCCTAATCTTTCTGTTCAAGCGCCATCTAC | 2.21
9 | GATGATTGTTCTCCCAGCTGATGAATTCTCCTCGTCGAGTAAACAAATTTTCCTAATCTTTCTGTTCAAGCGCCATCTAC | 0.201
10 | GATGATTGTTCTCCCAGCTGATGAATTGTTGTTATCGAGTAAACAAATTTTCCTAATCTTTCTGTTCAAGCGCCATCTAC | 6.7
11 | GATGATTGTTCTCCCAGCTGATGAATTCACGAAATCGAGTAAACAAATTTTCCTAATCTTTCTGTTCAAGCGCCATCTAC | 0.244
12 | GATGATTGTTCTCCCAGCTGATGAATTCAAGGAATCGAGTAAACAAATTTTCCTAATCTTTCTGTTCAAGCGCCATCTAC | 0.188
13 | GATGATTGTTCTCCCAGCTGATGAATTGCAGATGTCGAGTAAACAAATTTTCCTAATCTTTCTGTTCAAGCGCCATCTAC | 0.708
14 | GATGATTGTTCTCCCAGCTGATGAATTCACTATTTCGAGTAAACAAATTTTCCTAATCTTTCTGTTCAAGCGCCATCTAC | 0.483
15 | GATGATTGTTCTCCCAGCTGATGAATTCTGATTTTCGAGTAAACAAATTTTCCTAATCTTTCTGTTCAAGCGCCATCTAC | 1.27
16 | GATGATTGTTCTCCCAGCTGATGAATTTTGTGCATCGAGTAAACAAATTTTCCTAATCTTTCTGTTCAAGCGCCATCTAC | 2.27

Row | Sequence | binding signal (RPM ratio (pull-down/input))
17 | GATGATTGTTCTCCCAGCTGATGAATTTTCAGTATCGAGTAAACAAATTTTCCTAATCTTTCTGTTCAAGCGCCATCTAC | 0.403
18 | GATGATTGTTCTCCCAGCTGATGAATTCGGTCCATCGAGTAAACAAATTTTCCTAATCTTTCTGTTCAAGCGCCATCTAC | 0.372
19 | GATGATTGTTCTCCCAGCTGATGAATTTATCAACTCGAGTAAACAAATTTTCCTAATCTTTCTGTTCAAGCGCCATCTAC | 0.865
20 | GATGATTGTTCTCCCAGCTGATGAATTATCGTAATCGAGTAAACAAATTTTCCTAATCTTTCTGTTCAAGCGCCATCTAC | 0.762
21 | GATGATTGTTCTCCCAGCTGATGAATTGATTATATCGAGTAAACAAATTTTCCTAATCTTTCTGTTCAAGCGCCATCTAC | 0.905
22 | GATGATTGTTCTCCCAGCTGATGAATTCTCACGATCGAGTAAACAAATTTTCCTAATCTTTCTGTTCAAGCGCCATCTAC | 0.235
23 | GATGATTGTTCTCCCAGCTGATGAATTAGATTACTCGAGTAAACAAATTTTCCTAATCTTTCTGTTCAAGCGCCATCTAC | 2.62
24 | GATGATTGTTCTCCCAGCTGATGAATTCAAGGGATCGAGTAAACAAATTTTCCTAATCTTTCTGTTCAAGCGCCATCTAC | 0.208
25 | GATGATTGTTCTCCCAGCTGATGAATTCGGACGATCGAGTAAACAAATTTTCCTAATCTTTCTGTTCAAGCGCCATCTAC | 0.211
26 | GATGATTGTTCTCCCAGCTGATGAATTGTCGACGTCGAGTAAACAAATTTTCCTAATCTTTCTGTTCAAGCGCCATCTAC | 0.381
27 | GATGATTGTTCTCCCAGCTGATGAATTTGTTTGATCGAGTAAACAAATTTTCCTAATCTTTCTGTTCAAGCGCCATCTAC | 5.99
28 | GATGATTGTTCTCCCAGCTGATGAATTCTCAATATCGAGTAAACAAATTTTCCTAATCTTTCTGTTCAAGCGCCATCTAC | 0.396
29 | GATGATTGTTCTCCCAGCTGATGAATTCTACCTGTCGAGTAAACAAATTTTCCTAATCTTTCTGTTCAAGCGCCATCTAC | 0.267
30 | GATGATTGTTCTCCCAGCTGATGAATTCGGGAGTTCGAGTAAACAAATTTTCCTAATCTTTCTGTTCAAGCGCCATCTAC | 0.402
31 | GATGATTGTTCTCCCAGCTGATGAATTACATGTGTCGAGTAAACAAATTTTCCTAATCTTTCTGTTCAAGCGCCATCTAC | 1.01
32 | GATGATTGTTCTCCCAGCTGATGAATTCCAAAGTTCGAGTAAACAAATTTTCCTAATCTTTCTGTTCAAGCGCCATCTAC | 0.203
